According to paper PMC4845016:
These are yes or no findings as the source states them, for the method shown. In cells and extracts the contact can be indirect. Some results given as binding are weak or reduced against the parent protein; the word gives no strength. Blank lines part the entries; values can stand above or below the binder they belong to.

Tests used:
Assay in all cases: co-IP; cells co-transfected with flag- and CFP-tagged proteins; lysis in NETN buffer (100 mM NaCl, 20 mM Tris-Cl pH 8.0, 0.5 mM EDTA, 0.5% NP-40); anti-flag M2 beads; washes with high-salt NETN (300 mM NaCl); 4 °C; immunoblotting; EB1-EB2 also tested with CCCP treatment of the cells (Fig. 4D)
[1] = target: T1, Endophilin B1 (mouse) (UniProt Q9JK48)
T1 sequence: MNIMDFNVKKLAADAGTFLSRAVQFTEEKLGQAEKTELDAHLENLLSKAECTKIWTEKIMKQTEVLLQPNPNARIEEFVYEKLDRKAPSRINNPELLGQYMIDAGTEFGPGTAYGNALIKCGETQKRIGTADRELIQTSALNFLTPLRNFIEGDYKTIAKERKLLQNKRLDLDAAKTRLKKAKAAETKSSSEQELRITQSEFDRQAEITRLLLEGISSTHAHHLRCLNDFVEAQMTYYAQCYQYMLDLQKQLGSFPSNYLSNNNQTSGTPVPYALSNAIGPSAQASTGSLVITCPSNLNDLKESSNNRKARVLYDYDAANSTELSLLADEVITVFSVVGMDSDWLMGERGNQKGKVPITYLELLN

[2] = target: T2, Endophilin B2 (human) (UniProt Q9NR46)
T2 sequence: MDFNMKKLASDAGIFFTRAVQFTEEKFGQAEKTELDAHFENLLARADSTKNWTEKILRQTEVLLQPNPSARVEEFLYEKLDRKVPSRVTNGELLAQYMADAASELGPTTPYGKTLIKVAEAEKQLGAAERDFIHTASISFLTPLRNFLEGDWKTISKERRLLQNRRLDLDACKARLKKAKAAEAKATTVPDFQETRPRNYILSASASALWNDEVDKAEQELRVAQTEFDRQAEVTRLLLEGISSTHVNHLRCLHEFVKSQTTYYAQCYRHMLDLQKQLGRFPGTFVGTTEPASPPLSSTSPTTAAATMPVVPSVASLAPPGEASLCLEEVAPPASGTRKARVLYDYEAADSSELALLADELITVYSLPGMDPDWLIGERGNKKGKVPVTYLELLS

[3] = target: T3, Endophilin B2 (human), Q9NR46; conditions: remark: other sources report otherwise
T3 chain: T2 sequence

binding [1]: no binding
binding [2]: no binding
B1: EB2 (Δ153–185) (protein, UniProt Q9NR46)
chain: MDFNMKKLASDAGIFFTRAVQFTEEKFGQAEKTELDAHFENLLARADSTKNWTEKILRQTEVLLQPNPSARVEEFLYEKLDRKVPSRVTNGELLAQYMADAASELGPTTPYGKTLIKVAEAEKQLGAAERDFIHTASISFLTPLRNFLEGDWATTVPDFQETRPRNYILSASASALWNDEVDKAEQELRVAQTEFDRQAEVTRLLLEGISSTHVNHLRCLHEFVKSQTTYYAQCYRHMLDLQKQLGRFPGTFVGTTEPASPPLSSTSPTTAAATMPVVPSVASLAPPGEASLCLEEVAPPASGTRKARVLYDYEAADSSELALLADELITVYSLPGMDPDWLIGERGNKKGKVPVTYLELLS

binding [1]: binds
B2: Endophilin B2 (protein, UniProt Q9NR46 1-395)
chain: T2 sequence

binding [3]: binds
B3: Endophilin B2, Q9NR46 1-395 (protein)
chain: T2 sequence

binding [1]: binds
B4: Endophilin B1 (protein, UniProt Q9JK48-1 1-365)
chain: T1 sequence

binding [2]: binds
B5: EB1 (Δ156–188) (protein, UniProt Q9JK48)
chain: MNIMDFNVKKLAADAGTFLSRAVQFTEEKLGQAEKTELDAHLENLLSKAECTKIWTEKIMKQTEVLLQPNPNARIEEFVYEKLDRKAPSRINNPELLGQYMIDAGTEFGPGTAYGNALIKCGETQKRIGTADRELIQTSALNFLTPLRNFIEGDYSSSEQELRITQSEFDRQAEITRLLLEGISSTHAHHLRCLNDFVEAQMTYYAQCYQYMLDLQKQLGSFPSNYLSNNNQTSGTPVPYALSNAIGPSAQASTGSLVITCPSNLNDLKESSNNRKARVLYDYDAANSTELSLLADEVITVFSVVGMDSDWLMGERGNQKGKVPITYLELLN
